Reference: PubChem BioAssay AID1508624 (National Center for Advancing Translational Sciences (NCATS), 2021)
In all, about 48,000 compounds went through this assay and about 120 (0.25%) were called active. Inconclusive results (about 4%) are left out. The call rests on the fitted dose curve; in most records, active means well fitted activation curve with a large enough effect; inconclusive means small, poorly fitted or top-dose-only effect, or another doubt; inactive means no such curve, though single readings can be large or run the other way. This is one part of the list.

Test: Primary qHTS for Identification of Small Molecule Activators of Huntingtin-Antisense Promoter Activity; further: nearly all actives have a fitted effect of over 55% in size
Conditions: HEK293 HTT-AS promoter firefly luciferase reporter, 24 h; series mostly up to 57.5 µM; activity change, positive = activation: at the top concentration
Summary of the method: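 Luminescence was read after Dual-Glo reagent and a 10 min room-temperature incubation. Values were normalized to vehicle (0% activity) and zero RLU (-100% activity). Reporter HEK293 cells had been exposed to compounds (up to 57.5 uM final) for 24 h.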

Activity change, positive = activation, inactive:
COc1cccc(C(=O)Nc2ccc(-n3nncc3-c3ccc(Br)cc3)cc2)c1OC -2.3%, Cc1cc(C)n2c(Nc3ccccc3C)c(-c3cccs3)nc2n1 -12%, O=C1CCc2ccc(OCCCCN3CCN(c4cccc(Cl)c4Cl)CC3)cc2N1, COc1ccc(C2=NN(S(C)(=O)=O)C(c3cn(-c4ccccc4)nc3-c3cccs3)C2)cc1 (stereo not drawn) -8.19%, C#CCN1C(=O)C(O)(CC(=O)c2ccc(OC)c(OC)c2)c2cc(Br)ccc21 (stereo not drawn) -15.6%, COc1ccc(C(=O)NCC(c2ccc3c(c2)OCO3)N2CCOCC2)cc1 (stereo not drawn) -13.2%, Cc1ccc(CN2C(=O)c3ccccc3Sc3ccc(C(=O)NCc4ccco4)cc32)cc1 -50.3%, Cc1oc2ncnc(N3CCOCC3)c2c1C(=O)N1CCN(c2cccc(C(F)(F)F)c2)CC1 -13.1%, COc1cccc(-c2ccnc3c(-c4ccc(F)cc4)c(C)nn23)c1 9.83%, CCCn1c(=N)c(C(=O)NCc2cccnc2)cc2c(=O)n3cccc(C)c3nc21 -4.38%, Cc1ccc(Oc2nc3c(c(=O)n(Cc4ccccc4)c(=O)n3C)n2C)cc1C 14.5% [at 11.5 µM, percent change from vehicle, -100% = no light], CCN(C(=O)C1CCC(CNS(=O)(=O)c2cccc3nsnc23)CC1)c1ccccc1 (stereo not drawn) -27.1%, CCN(C(=O)C1CCC(CNS(=O)(=O)c2cccc3nsnc23)CC1)c1cccc(C)c1 (stereo not drawn) -27.8%, CN(C)CCOC(c1ccc(Cl)cc1)c1ccccn1 (stereo not drawn) -9.7%, O=C(Cc1ccc(NC(=O)N2CCSc3ncccc32)cc1)NCc1ccccc1 -16.4%, Cc1cc(C)cc(NC(=O)Cn2c(=O)n(C(C)C)c(=O)c3oc4ccccc4c32)c1 -17.3%, Cc1cccc2c1CC[C@H](CN1CCC(c3c(Cl)cccc3Cl)CC1)C[C@@H]2O 5.16%, CCCc1ccc(OCC(=O)Nc2scc(-c3cccs3)c2C(=O)OC)cc1 -19.8%, COc1ccc2c(c1)CC(C(=O)NCCN1CCN(c3cccc(Cl)c3)CC1)CO2 (stereo not drawn) -21.6%, O=C(c1ccc2c(c1)N(Cc1ccc(F)cc1)CCS2)N1CCN(c2ccccc2)CC1 -31.8%, NC(=O)NC1NC(=O)NC1=O (stereo not drawn) 1.64%, Cc1ccc(CNC(=O)c2sc3nc4n(c(=O)c3c2C)CCCC4)cc1 15%, Cc1nc(Oc2ccccc2C)c2oc3ccccc3c2n1 -34.6%, Cc1c(C2=CCN(S(=O)(=O)c3ccc(Br)cc3)CC2)c2ccccc2n1CC(=O)N1CCCC1 -9.01%, Cc1ccc(CNC(=O)CSc2c3c(nc4ccc(Cl)cc24)CCCC3)cc1 -5.66%, Cc1cccc(Nc2nc(C)nc(N)c2S(=O)(=O)c2ccccc2)c1 -15.1%, CCOc1ccc(NC(=O)CN(Cc2ccccc2)S(=O)(=O)c2ccc(Cl)cc2)cc1 -11.3%, COc1ccc2nc3oc(C(=O)Nc4cccc(C(F)(F)F)c4)cc3cc2c1 -12.8%, Cc1cc(C)cc(NS(=O)(=O)c2ccc3c(c2)OCC(C(=O)N2CCCC2)O3)c1 (stereo not drawn) -23.6%, Cc1ccc2nc(-c3ccc(C)c(NC(=O)Cc4ccccc4)c3)oc2c1 -72.1%, Cc1ccccc1CN1CCc2nc(N3CCN(c4ccccn4)CC3)ncc2C1 -33.6%, CCc1c(C)sc2c1CCN(C(=O)Nc1ccccc1C(=O)OC)C2c1ccc(F)cc1 (stereo not drawn) -0.945%, CCNC(=O)c1c(NC(=O)COc2ccc(F)cc2)sc2c1CCCC2 -5.37%, O=C(Nc1ccc(Br)cc1)N1CCC(CN2CCCC2)CC1 -15.8%, COc1ccc(NC(=O)CSc2c3c(nc4ccc(Cl)cc24)CCCC3)cc1Cl -48%, COc1ccc(N2CCN(CCCNC(=O)c3ccc4nc(CCc5ccccc5)oc4c3)CC2)cc1 -14.7%, CCOc1ccc(C2C(C(=O)Nc3ccc(OC)cc3)=C(C)Nc3nc(SCc4ccc(Cl)cc4)nn32)cc1 (stereo not drawn) 6.13%, Cc1c(Cl)cccc1NC(=O)c1ccc(NC(=O)N2CCSc3ncccc32)cc1 11.1%, Cc1ccccc1NC(=O)CS(=O)(=O)c1cccc2nsnc12 -29.4%, Cn1c(CNC(=O)CSc2n[nH]c(-c3ccccc3)n2)nc2ccccc21 -6.71%, CCCCCOC(=O)CSc1nc2sc3c(c2c(=O)n1Cc1ccccc1)CC(C)(C)OC3 -5.13%, CC(C)(C)C1CCc2c(sc(NC(=O)Cn3nnc(-c4cccc(C(F)(F)F)c4)n3)c2C#N)C1 (stereo not drawn) -15.7%, Fc1ccc(Nc2nc3nonc3nc2Nc2cccc(C(F)(F)F)c2)cc1 -94.8%, CCCCc1nn2c(=O)cc(COC(=O)c3ccc(NC(=O)c4cccs4)cc3)nc2s1 -4.84%, CCN1CCSc2ccc(C(=O)NCc3cccc(F)c3)cc21 -4.2%, O=C(Cn1c(=O)n(-c2ccc(Cl)cc2)c(=O)c2c3c(sc21)CCC3)c1ccc(F)cc1 -7.21%, COc1ccccc1Cn1c(CNS(=O)(=O)c2ccc3c(c2)CCCC3)nc2cccnc21 -30.3%, COc1ccccc1N1CCN(C(=O)CSc2nc3ccccc3nc2Cc2ccc(F)cc2)CC1 -14.9%, Cc1csc2nc(COc3ccc(NC(=O)COc4ccccc4F)cc3)cc(=O)n12 -2.7%, Cc1nc2sccn2c(=O)c1S(=O)(=O)Nc1ccc(N2CCN(S(C)(=O)=O)CC2)cc1 -32.9%, Cc1ccc(-c2nc3ccccc3o2)cc1NC(=O)c1cccc2c(Cl)cccc12 18.2%, CCC(=O)N1c2ccccc2CC1C(=O)NCCN1CCN(c2cccc(C)c2C)CC1 (stereo not drawn) -20.9%, O=C(CSc1nc(-c2ccccc2)[nH]c1-c1ccccc1)Nc1ccc2c(c1)OCO2 -27.6%, Cc1cccc(Nc2nc(-c3ccccc3)c3cc(C)ccc3n2)c1 -19.1%, O=[N+]([O-])c1cc(-c2nc(-c3ccccc3)no2)ccc1N1CCCC1 -87.7%, COc1cccc(CNC(=O)CCc2nnc3n(CC(C)C)c(=O)c4ccccc4n23)c1 -9.9%, Cc1sc2c(c1C)c(=O)n(-c1ccccc1)c(=O)n2CC(=O)c1ccc(Cl)cc1 -10.4%, Cc1ccc(NC(=O)CSc2nnc3[nH]c(=O)cc(C)n23)cc1Cl 13.7%, CCC(Sc1nc2c(sc3ccccc32)c(=O)n1CCCC(=O)NC1CCCC1)C(=O)Nc1cccc(OC)c1 (stereo not drawn) -9.08%, CC(C)CC(=O)N1CC(=O)Nc2ccc(F)cc2C1c1ccccc1 (stereo not drawn) -1.34%, CC(C)OCCCn1c(SCC(=O)Nc2ccc(F)cc2)nc2c(sc3ccccc32)c1=O 0.424%, NCCCC(N)(C(=O)O)C(F)F (stereo not drawn), COc1cc(CNC(=O)CSCc2nc3cccnc3n2C2CCCCC2)cc(OC)c1OC -15%, CC(=O)Nc1ccc(OCCOCCOc2ccc(NC(C)=O)cc2)cc1 -6.7%, Cc1ccc(C)c(NC(=O)CCc2nc(-c3ccc(C(C)(C)C)cc3)no2)c1 -34.2%, CCOc1cc(C#N)c(NC(=O)c2cccc(S(=O)(=O)N3CCOCC3)c2)cc1OCC -20%, CCC(=O)N1CCc2cc(CNC(=O)Nc3ccccc3Cl)ccc21 -0.878%, O=C(CCNS(=O)(=O)c1ccc2c(c1)CCCC(=O)N2)NCc1ccccc1Cl -16.7%, CCCCCCCCCCCC1=C(O)C(=O)C=C(O)C1=O -26.2%, COc1cccc(NC(=O)CN(C)S(=O)(=O)c2cccs2)c1 16.8%, CC(C(=O)NCc1ccccc1)N1Cc2ccccc2C1=O (stereo not drawn) 4.93%, CC1CCN(C(=O)CSc2nc(-c3ccc(C(C)C)cc3)no2)CC1 5.87%, O=C(Nc1ccc([N+](=O)[O-])cc1)Nc1ccc([N+](=O)[O-])cc1 -4.07%, CCCS(=O)(=O)N1CC(=O)N(c2ccccc2F)C(C)(C(=O)NC2CCCCCC2)C1 (stereo not drawn) -7%, Cc1ccc(C(=O)Nc2ccc3c(c2)N(C)C(=O)c2ccccc2S3)cc1 -47.4%, CCc1ccc(NC(=O)c2cc(S(=O)(=O)N3CCCC3)ccc2F)cc1 -14.9%, COc1ccc(CCNC(=O)c2cc(C)nc3c2c(C)nn3-c2ccccc2)cc1OC -14.3%, Cc1cccc(-n2ncc(C(=O)N3CCc4ccccc4C3)c2C2CCN(C(=O)OC(C)(C)C)CC2)c1 -1.84%, Cc1oc2ccc(O)c(CN3CCCCCC3)c2c1C(=O)Nc1cccc(Cl)c1C -37.9%, Cc1nn2c(=O)cc(COC(=O)c3cccc(NC(=O)COc4ccc(C)c(C)c4)c3)nc2s1 3.65%, N#Cc1c[nH]n2c(NC3CCCCC3)c(-c3ccccc3F)nc12 -6.33%, CCSc1ncc(Cl)c(C(=O)N(Cc2ccccc2Cl)C2CCS(=O)(=O)C2)n1 (stereo not drawn) 3.64%, O=C(C1CCN(S(=O)(=O)c2cccs2)CC1)N1CCN(c2cccc(Cl)c2)CC1 -17.3%, CCN(CC)CCCNC(=O)c1ccc2c(c1)N(Cc1c(F)cccc1Cl)C(=O)c1ccccc1S2 -48.4%, CSc1ncc2c(n1)-c1ccccc1N(Cc1ccc(F)cc1)S2(=O)=O 19.4%, O=C(NCCc1ccc(Cl)cc1)C(=O)NCC(c1ccco1)S(=O)(=O)c1cccs1 (stereo not drawn) -12.9%, Cc1ccc(OCCSc2nc3ccc(NC(=O)c4ccc5c(c4)OCO5)cc3s2)cc1 -3.19%, O=C(Nc1ccc(F)cc1)C1CCN(c2nc3ccccc3n3cccc23)CC1 -8.46%, COc1ccc(NC(=O)c2cc3c(=O)n(C)c4ccccc4c3s2)cc1Cl -16.6%, CCOC(=O)C1CCCN(C(=O)c2c(C)nn(-c3ccc(F)cc3)c2-n2cccc2)C1 (stereo not drawn) -10.2%, CCS(=O)(=O)N1CCc2cc(C(=O)Nc3cccc(C)c3C)ccc21 28.4%, CCCc1ccc(OC(=O)CSc2nnc(-c3cccs3)o2)cc1 -1.28%, CSc1ccc(CCNC(=O)CCn2c(=O)c3cccn3c3cccnc32)cc1 -5.98%, Cc1cccc(NC(=O)CSc2nnc(N)s2)c1 -2.74%, O=C(NC1(C(F)(F)F)NC(=O)N(CCc2ccccc2)C1=O)c1ccccc1Cl (stereo not drawn) -15.3%, Cc1nc(-n2nc(C)c(Cc3ccccc3Cl)c2C)sc1C(=O)N1CCC(C)CC1 -3.52%, O=C(CCn1cccn1)NCc1ccc(Cl)cc1 -5.32%, CCOC(=O)C(CC)Sc1ncnc2sc3c(c12)CCCC3 (stereo not drawn) -28.8%
